Source: PubChem BioAssay AID651820 (National Center for Advancing Translational Sciences (NCATS), 2012)
In all, about 340,000 compounds went through this assay and about 12,000 (3.5%) were called active. Inconclusive results, whose numbers are uncertain, are shown with a selection of clear calls. The call rests on the fitted dose curve; in most records, active means well fitted inhibition curve with a large enough effect; inconclusive means small, poorly fitted or top-dose-only effect, or another doubt; inactive means no such curve, though single readings can be large or run the other way. No potency is given beside an inconclusive call; the fits are too rough.

Experiment: qHTS Assay for Inhibitors of Hepatitis C Virus (HCV)
Details: Huh7.5.1 HCVcc-Cre (HCVcc is cell-culture hepatitis C virus) infection, luciferase reporter, 44 h; series mostly up to 41.8 µM
How it was run: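 Infectious HCV cell culture screen: compound-treated cells (1,000/well, pre-plated 4 h) are infected with HCVcc-Cre at roughly 0.5 moi and grown 44 h. Infection is quantified by luciferase signal after 15 min substrate incubation at room temperature.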
Potency means the concentration at half of the fitted maximal effect; tags describe the fitted curve by direction and shape.

SMILES | Potency
C#CCOCCOCCOCCNc1nc(N2CCN(C(=O)[C@H](CCCCN)n3cc(CN)nn3)CC2)nc(N2CCN(C(=O)[C@H](CCCN=C(N)N)n3cc(C(N)[C@H](C)CC)nn3)CC2)n1 (some centres not stated) | inconclusive [inhibitor, single point]
COc1ccc(-n2ncc3c(=O)n(CC(=O)N4CCCc5ccccc54)cnc32)cc1 | inconclusive [inhibitor, single point]
Cc1c(C(=O)NCc2ccco2)cccc1[N+](=O)[O-] | inconclusive [inhibitor, single point]
O=C(O[C@@H]1[C@H](Cc2ccccc2)NS(=O)(=O)[C@H]2C[C@@H]3C=C[C@]12O3)c1ccccc1Br | inactive
O=S(=O)(c1c(Cl)sc(Cl)c1Br)N1CCCC1 | inactive
COc1ccc(OC)c(/C=N/NC(=O)Cn2ccnc2C)c1 | inconclusive [inhibitor, single point]
O=[N+]([O-])c1cc(-c2ncccn2)c([N+](=O)[O-])s1 | inconclusive [inhibitor, single point]
CCc1ccc(NCc2nc3ccccc3c(=O)[nH]2)cc1 | inconclusive [inhibitor, partial curve]
CCOc1ccc(NC(=O)C(C)C(Cc2ccc(C)cc2)C(=O)O)cc1 (configuration not stated) | inactive
CCOC(=O)c1c(NC(=O)COC(=O)CNC(=O)c2ccco2)sc(C)c1C | inconclusive [inhibitor, partial curve]
Cc1ccc(Cn2c(SCCN3CCCCC3)nc3c2c(=O)n(C)c(=O)n3C)cc1 | active: 12.6 µM
Clc1cccc(CSc2nnc(-c3cccnc3)n2Cc2ccco2)c1 | inactive
COc1cccc(C(=O)Nc2cccc(-c3ccccc3)c2)c1 | inconclusive [inhibitor, single point]
N#Cc1cccc2c1-c1ccccc1/C2=N/NC(N)=S | active: 12.6 µM
CCC1=NN(C(=O)C(=O)NCCc2ccccc2)C(O)(C(F)(F)F)C1 (configuration not stated) | inconclusive [inhibitor, single point]
COc1ccc(Cl)cc1NC(=O)CNc1ccccc1F | inconclusive [inhibitor, single point]
COc1cc2ccc(=O)oc2c2ccoc12 | inconclusive [inhibitor, single point]
CCOc1ccc(Cc2onc3c2C(=O)CC(C)(C)C3)cc1OCC | inconclusive [inhibitor, partial curve, poor fit]
CCCNC(=O)C1CCN(S(=O)(=O)c2ccc3[nH]c(=O)ccc3c2)CC1 | inactive
Nn1c(Nc2ccccc2)nc2sc3c(c2c1=O)CCC3 | active: 12.6 µM
O=C/C(=C\Nc1ccc(S(=O)(=O)CCO)cc1)c1nc2cc(Cl)ccc2o1 | inactive
Cc1cccc(CSc2nnc(CCCCCNC(=O)OC(C)(C)C)o2)c1 | inconclusive [inhibitor, partial curve]
CCOc1cc(N2CCOCC2)c(OCC)cc1NC(=O)COc1cccc(Cl)c1 | inconclusive [inhibitor, full curve, poor fit]
C[C@H](NC(=O)[C@H]1N2C(=O)c3ccccc3C2SC1(C)C)C(=O)N1CCC[C@H]1C(=O)O (some centres not stated) | active: 1 µM

SMILES | Potency
Cc1n[nH]c(C)c1S(=O)(=O)N1CCN(c2ccccn2)CC1 | inactive
O=C(CSc1nc2ccccc2c(=O)n1Cc1ccc(F)cc1)NCc1cccs1 | inconclusive [inhibitor, full curve, poor fit]
Cc1ccc(NC(=O)CN(C)C(=O)c2cccc(S(=O)(=O)NCc3ccco3)c2)cc1 | inactive
CC1CCc2c(sc(N)c2C(N)=O)C1 (configuration not stated) | inconclusive [inhibitor, single point]
Cc1cnc(C(=O)N2CCN(c3ccc(C(F)(F)F)cn3)CC2)cn1 | inactive
CN(C(=O)C1CCN(S(=O)(=O)c2cccs2)CC1)c1ccccc1 | inactive
CCCn1c(C)cc(C(=O)COc2ccc(S(=O)(=O)N(CC)CC)cc2[N+](=O)[O-])c1C | inconclusive [inhibitor, partial curve]
CC(=O)Nc1ccc(-c2ccc(NC(C)=O)c(O)c2)cc1O | inactive
O=C(CSCc1ccccc1)Nc1cccc(F)c1 | inactive
Cc1ccc(NC(=O)CSc2n[nH]c(-c3ccccn3)n2)cc1 | inconclusive [inhibitor, partial curve]
Cc1nc2c(=O)n(-c3ccc(F)c(Cl)c3)nc(C)c2s1 | inconclusive [inhibitor, single point]
CN1CCCC(OC(=O)c2cc(Cl)ccc2Cl)C1 (configuration not stated) | inconclusive [inhibitor, single point]
COc1cc(/C=C2/SC(=S)N(Cc3ccccc3)C2=O)ccc1OS(C)(=O)=O | inconclusive [inhibitor, partial curve]
O=C(Nc1cc(C(F)(F)F)ccc1Cl)c1cc2nc3c(c(C(F)(F)F)n2n1)CCCC3 | inconclusive [inhibitor, single point]
COc1cc(OC)cc(C(=O)Nc2ccc(C(=O)NCC3CCCO3)cc2)c1 (configuration not stated) | inconclusive [inhibitor, partial curve]
CN(CC(=O)NC(=O)NCc1ccccc1)CC(=O)Nc1ccc(Cl)c(Cl)c1 | inconclusive [inhibitor, single point]
N#C/C(=C\c1ccc(OC(=O)c2ccc(Cl)s2)cc1)c1nc2ccccc2[nH]1 | inactive
CCOc1ccccc1CNC(=O)C1CCCN(c2nn3c(=O)cc(C)nc3s2)C1 (configuration not stated) | inactive
CC(=O)Nc1sc(N/N=C/c2ccc(C)cc2)nc1-c1ccc(C)cc1 | inactive
CC(=O)NCCOc1nc(N2CCCCC2)nc(N2CCCCC2)n1 | inconclusive [inhibitor, partial curve]
COCc1cc(C)nc(Sc2nc3c(c(=O)n(C)c(=O)n3C)n2C)c1C#N | inactive
Cn1c(SCc2nnc(-c3ccccc3Br)o2)nc2sc3c(c2c1=O)CCC3 | inconclusive [inhibitor, single point]
CNc1nc2sc3c(c2c(=O)n1C)CC(C)(C)SC3 | inconclusive [inhibitor, partial curve]
CCOc1cc(NC(=O)c2ccco2)c(OCC)cc1NC(=O)CCc1ccccc1OC | inconclusive [inhibitor, full curve, poor fit]

SMILES | Potency
Cc1cccc(C)c1NC1=C(Cl)C(=O)OC1OC(=O)c1ccccc1 (configuration not stated) | inactive
CC(C)Cc1nnc(NC(=O)CCC(=O)NC2CCCCCC2)s1 | inactive
N#CC1=C2N=C(N)c3ccccc3N2C2=C(C(=O)CCC2)C1c1ccccc1F (configuration not stated) | inactive
CCC(C)N(C(=O)COc1ccc(-c2nnco2)cc1)C1CCS(=O)(=O)C1 (configuration not stated) | inactive
CCN(CC)S(=O)(=O)c1cccc(NC(=O)COC(=O)C2CC3C=CC2C3)c1 (configuration not stated) | inactive
CC(C)(C)OC(=O)N(CCc1ccccc1)Cc1ccc(OCc2cccc(NC(=O)c3ccccc3)c2)cc1 | inconclusive [inhibitor, partial curve]
COc1ccc(-c2cc(COc3ccccc3)on2)cc1 | inconclusive [inhibitor, single point]
Cc1c(C(=O)N(C)C2CC(C)(C)NC(C)(C)C2)oc2c(F)cccc12 | inconclusive [inhibitor, partial curve]
CC1CCC2C(=O)N(c3ccc(C(=O)Oc4cccc5cccnc45)cc3)C(=O)C2C1 (configuration not stated) | inconclusive [inhibitor, single point]
COC(=O)c1cc(NC(=O)c2ccccc2)c(=O)oc1C/C=N\OCc1ccc(Cl)cc1Cl | inconclusive [inhibitor, single point]
COc1ccccc1CN(C)CC(=O)Nc1ccc(Cl)cc1F | inactive
CCCN(CCC)CCNC(=O)C1c2ccccc2C(=O)N(CCOC)C1c1ccc(F)cc1 (configuration not stated) | inactive
COc1ccc(-c2ccc(SCC(=O)NCC3CCCO3)nn2)cc1OC (configuration not stated) | inactive
O=C(CSc1ccc(Cl)cc1)N1CCN(c2ccc(Cl)cc2[N+](=O)[O-])CC1 | inconclusive [inhibitor, single point]
COc1ccc(-c2cc(-c3ccccc3)n[nH]2)c(O)c1 | inactive
CN(CC(=O)Nc1cccc(F)c1)C(=O)/C=C/c1cc(Br)ccc1OC(F)F | inconclusive [inhibitor, single point]
CC1(O)CC2CC1C(C(=O)O)C2C(=O)O (configuration not stated) | inactive
CCCCCc1cc(=O)oc2c(C(CCN3CCCCC3)c3ccc(OC)cc3)c(OC)cc(OC)c12 (configuration not stated) | inconclusive [inhibitor, partial curve]
O=C(Nc1ccccc1N1CCN(c2ccccc2)CC1)c1cccc(F)c1 | inconclusive [inhibitor, single point]
Cc1cc(=O)oc2c(C)c(OC3CCCCC3=O)ccc12 (configuration not stated) | inactive
N=C(N)SCc1cn(-c2ccccc2)nc1-c1ccc(Br)cc1 | inconclusive [inhibitor, single point]
CCOC(=O)C1(CC2CCCCO2)CCN(C(=O)Nc2ccc(SC)cc2)CC1 (configuration not stated) | inconclusive [inhibitor, single point]
CS(=O)(=O)N(Cc1ccc(C(=O)NCCSc2ccccn2)cc1)c1ccccc1 | inconclusive [inhibitor, full curve]
O=C(Cn1nnc2ccccc2c1=O)Nc1cccc(S(=O)(=O)N2CCOCC2)c1 | inconclusive [inhibitor, single point]
